According to the GPR68 mutational scans of Howard et al. (2025):
Scores whose standard error is large were omitted. Two further conditions of the source, in which the scores hardly spread, are not listed. In variant names, del marks residues removed and ins residues inserted between the two positions. For part of these data: How much ogerin was present is not stated here.

B1: GPR68, Q15743 (parent)
chain: MGNITADNSSMSCTIDHTIHQTLAPVVYVTVLVVGFPANCLSLYFGYLQIKARNELGVYLCNLTVADLFYICSLPFWLQYVLQHDNWSHGDLSCQVCGILLYENIYISVGFLCCISVDRYLAVAHPFRFHQFRTLKAAVGVSVVIWAKELLTSIYFLMHEEVIEDENQHRVCFEHYPIQAWQRAINYYRFLVGFLFPICLLLASYQGILRAVRRSHGTQKSRKDQIQRLVLSTVVIFLACFLPYHVLLLVRSVWEASCDFAKGVFNAYHFSLLLTSFNCVADPVLYCFVSETTHRDLARLRGACLAFLTCSRTGRAREAYPLGAPEASGKSGAQGEEPELLTKLHPAFQTPNSPGSGGFPTGRLA

How the values were obtained:
[1] = variants of: B1; experiment: cAMP reporter score (Enrich2 score, wild type = 0); higher = more signal; HEK293T, FACS bins
[2] = variants of: B1; experiment: surface expression score (Enrich2 score, wild type = 0); higher = more signal; HEK293T, FACS bins

| Variant | cAMP reporter score ([1]; pH 5.5) | cAMP reporter score ([1]; pH 6) | cAMP reporter score ([1]; pH 6, modulator: ogerin) | cAMP reporter score ([1]; pH 6.5, modulator: ogerin) | surface expression score [2] |
| --- | --- | --- | --- | --- | --- |
| V235Q | -1.22 | -1.31 | -0.945 | -1.73 | -1.7 |
| V235N | -0.845 |  | -0.621 | -0.232 | -1.76 |
| V235A | 1.8 | 3.99 | 2.39 | 2.7 | 0.223 |
| V235T | 1.05 | 1.56 | 2.53 |  |  |
| V235D | -0.783 | -0.648 | -1.29 | -0.635 | -0.745 |
| V235W | -0.023 | -1.08 | -0.306 | -0.326 | -0.938 |
| V235H | -1.19 |  |  |  | -0.302 |
| V235P | -1.38 | -1.38 | -1.49 | -0.761 | -3.49 |
| V235C | -0.485 | -0.688 | -0.231 | 1.33 | 0 |
| V235K | -0.978 | -1.18 |  | -0.03 | -2.85 |
| V235G | 0.908 | 1.74 | 2.02 | 3.62 |  |
| V235R | -1.35 | -0.87 | -2.13 | -1.78 | -2.75 |
| V235F | 0.135 | 0.064 | -0.558 | 0.06 | -0.195 |
| V235S | 0.867 | 2.16 | 0.504 |  | -0.404 |
| V235L | 0.882 | 1.53 | 0.971 | 1.74 | 1.06 |
| V235E | -0.635 |  |  | -0.917 | -1.65 |
| V235_F237del | -1.07 | -0.727 | -3.11 | -1.47 | -1.36 |
| L229del | -1.54 | -1.26 | -1.54 | -1.64 | -2.24 |
| L242_P243insGSG | -0.24 |  |  | -0.849 |  |
| R228_L229insGS | -1.76 |  |  | -0.038 |  |
| C240del | -2.04 |  |  | -1.75 | -0.355 |
| F241del | -1.87 | -0.984 | -1.7 | -0.56 | -1.83 |

| Variant | cAMP reporter score ([1]; pH 5.5) | cAMP reporter score ([1]; pH 6) | cAMP reporter score ([1]; pH 6, modulator: ogerin) | cAMP reporter score ([1]; pH 6.5, modulator: ogerin) | surface expression score [2] |
| --- | --- | --- | --- | --- | --- |
| I226P | -0.976 |  | -1.06 | -1.48 | -0.042 |
| I226L | 0.543 | 0.572 | -0.228 | 0.492 | -0.116 |
| I226S | -1.06 | -1.37 | -0.992 | -1.05 | 0.3 |
| I226T | -0.845 | -1.55 | -0.58 |  | 0.479 |
| I226C | -0.208 | -1.76 | -0.489 | -0.608 | 0.692 |
| I226N | -1.47 | -0.194 | -1.65 | -0.883 | 0.67 |
| I226Y | -1.52 | -1.26 | -2.35 | -0.986 | 0.245 |
| I226R | -0.753 | 0.03 | -1.31 | -0.972 | 0.033 |
| I226E | -1.6 | -1.7 | -0.79 | -1.21 | -0.626 |
| I226M | -0.884 | -1.16 | -1.19 | -1.57 | 0.141 |
| I226G | -0.849 | -0.141 |  | -1.55 | 0.277 |
| I226Q | -1.86 | -1.19 | -1.47 | -1.21 | 0.112 |
| I226A | -1.85 | -0.781 | -0.747 | -0.56 | 1.67 |
| I226F | -1.39 | -1.14 | -1.86 | -1.04 | -0.573 |
| I226W | -0.828 | -0.909 | -1.02 | -0.526 | -0.052 |
| I226V | -0.77 | -0.571 | -0.469 | -0.477 | -0.146 |
| I226K | -0.978 |  |  | -0.97 | -1.34 |
| I226D | -1.6 | -1.04 |  | -1.17 | -0.582 |
| L231_S232del | -1.33 | -1.65 |  | -0.448 | -3.78 |
| H245L | -1.26 | -1.13 | -2.6 | -0.847 | -2.19 |
| H245S | -0.436 | 0.843 | -1.33 | -1.27 | -1.68 |
| H245C | -1.67 | -0.815 | -1.24 | -0.919 | -2.74 |

| Variant | cAMP reporter score ([1]; pH 5.5) | cAMP reporter score ([1]; pH 6) | cAMP reporter score ([1]; pH 6, modulator: ogerin) | cAMP reporter score ([1]; pH 6.5, modulator: ogerin) | surface expression score [2] |
| --- | --- | --- | --- | --- | --- |
| H245Q | -0.809 | -1.39 | -1.57 | -1.43 | -1.51 |
| H245K | -1.09 | -0.926 |  |  | -0.947 |
| H245W | -1.53 | -0.759 | -1.2 | -1.17 | -2.1 |
| H245V | -1.52 | -1.69 | -1.83 | -1.22 | -2.27 |
| H245Y | -1.58 | -1.53 | -1.72 | -0.601 |  |
| H245R | -1.74 | -1.03 | -0.899 | -0.786 | -2.14 |
| H245N | -0.398 |  | -2.53 | -2.03 | -0.386 |
| H245T | -0.552 | 0.328 | -1.02 | -0.531 | -2.48 |
| H245P | -1.65 | -0.932 | -1.4 | -0.501 | -2.57 |
| H245A | -0.303 | -0.975 | -1.38 | -0.332 | -3.2 |
| H245M | -0.598 | -0.588 | -1.13 | -0.921 | -1.84 |
| H245I | -1.8 | -0.451 | -1.59 | -1.22 | -2.06 |
| H245E | -0.971 | -1.05 | -2.77 | -1.55 | -1.05 |
| H245D | -1.97 | -1.09 |  | -1.66 | -2.71 |
| I226_Q227del | -0.782 | -1.35 | -1.02 | -1.08 | 0.79 |
| K223_D224insG | -1.46 | -1.7 | -1.98 | -1.12 | -0.417 |
| Y244_V246del | -1.68 | -0.783 | -1.64 | -1.33 | -2.51 |
| I226_Q227insGSG | -0.977 | -1.13 | -0.803 | -0.648 | 0.215 |
| V230_L231del | -1.9 | -0.543 | -1.84 | -0.663 | -1.67 |
| L231_S232insGSG | -1.84 | -1.38 | -1.99 | -1.33 | -2.17 |
| I236_L238del | -1.63 | -0.301 | -2.11 | -1.03 | -2.32 |
